Source: the supplement of paper PMC3334620
In all, about 33,000 sequences were measured (“E-score (-0.5 to 0.5)”: median about -0.043, highest 2% from about 0.37 on). The list shows a part of the results.

target: T1, Upc2 (UniProt Q12151); assay: PBM E-score (8-mer binding enrichment) (E-score (-0.5 to 0.5)); higher = stronger / more preferred TF binding; most listed sequences are background and not binding sites; details: protein concentration: 200 nM; construct: GST-full length
T1 sequence: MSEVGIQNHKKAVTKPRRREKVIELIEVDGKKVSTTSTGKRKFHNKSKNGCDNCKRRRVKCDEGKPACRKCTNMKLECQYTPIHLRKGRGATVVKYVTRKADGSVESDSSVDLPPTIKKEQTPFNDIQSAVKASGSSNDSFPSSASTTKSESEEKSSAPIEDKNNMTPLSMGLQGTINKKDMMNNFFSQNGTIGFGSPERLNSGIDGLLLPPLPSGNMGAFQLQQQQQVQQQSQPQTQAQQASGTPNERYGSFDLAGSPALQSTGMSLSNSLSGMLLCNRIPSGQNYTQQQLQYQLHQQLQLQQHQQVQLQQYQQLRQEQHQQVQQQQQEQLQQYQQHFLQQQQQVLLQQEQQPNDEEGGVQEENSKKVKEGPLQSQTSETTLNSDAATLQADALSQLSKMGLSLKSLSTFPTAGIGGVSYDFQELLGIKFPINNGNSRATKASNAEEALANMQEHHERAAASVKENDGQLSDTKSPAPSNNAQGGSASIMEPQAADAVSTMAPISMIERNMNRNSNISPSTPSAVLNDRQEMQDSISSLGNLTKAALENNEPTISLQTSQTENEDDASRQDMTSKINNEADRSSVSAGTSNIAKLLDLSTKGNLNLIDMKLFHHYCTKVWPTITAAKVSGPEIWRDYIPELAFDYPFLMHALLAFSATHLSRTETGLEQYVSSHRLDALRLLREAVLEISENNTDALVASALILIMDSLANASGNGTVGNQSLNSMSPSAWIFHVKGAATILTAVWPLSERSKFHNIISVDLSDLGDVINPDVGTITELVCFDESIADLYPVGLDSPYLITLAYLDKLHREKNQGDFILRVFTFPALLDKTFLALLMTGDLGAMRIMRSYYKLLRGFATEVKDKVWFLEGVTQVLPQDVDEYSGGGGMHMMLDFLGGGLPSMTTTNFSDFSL
How it was run: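 PURExpress in vitro transcription/translation supplied GST-tagged yeast transcription factors, either full-length or DNA-binding domain. Applied at about 100-200 nM to universal all-10-mer Agilent arrays double-stranded by primer extension, the bound protein was detected with fluorescent anti-GST. E-scores, modified Wilcoxon-Mann-Whitney statistics, were given by the Universal PBM Analysis Suite to ungapped eight-base words pooled with their reverse complements after masliner normalisation.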

Row | Sequence | PBM E-score
1 | AGCAGGCC | -0.148
2 | AACGTCTC | 0.117
3 | CTACGCTA | -0.04
4 | ATTTAAGG | -0.064
5 | TGAGGGAA | -0.084
6 | AATCATGG | -0.197
7 | CTGTGAGC | 0.0332
8 | ATCTCGAA | 0.038
9 | ATTTCTGG | -0.104
10 | GGAGGATA | -0.132
11 | ATAATAGC | -0.0244
12 | CAACGCAC | -0.0166
13 | CTAGTCTC | -0.0707
14 | TACACGTA | 0.191
15 | AATGAGGT | -0.0435
16 | CCCTACAC | -0.0225
17 | CGTCATCA | 0.0642
18 | AAGGATCG | 0.271
19 | CCCACAAG | 0.0134
20 | CAAGGAGC | -0.149
21 | CATGACTA | -0.00188
22 | AATTAATG | -0.0149
23 | ACCTATCC | -0.00458
24 | CACTTAGC | -0.194
25 | ACTTGTGG | -0.162

Row | Sequence | PBM E-score
26 | CCTGTTCA | -0.0135
27 | AAATTTTC | 0.0349
28 | CAAACTTC | -0.0798
29 | AGGTACTA | -0.24
30 | CCCTGGGC | -0.236
31 | CCGGGGCC | -0.19
32 | CCCCCCCC | -0.353
33 | TCGAGACA | 0.0571
34 | ATTCCTGA | -0.155
35 | AAATGACA | -0.14
36 | CTGCTACA | -0.0733
37 | CGCGGAGA | -0.0104
38 | CCGTGTCA | -0.245
39 | TCGACTAA | -0.082
40 | AACCCTAG | -0.0316
41 | TGTCGCAA | 0.174
42 | GTCCGATA | 0.108
43 | CACGGACC | 0.0136
44 | AAAACAGC | 0.0339
45 | CCCCGGTA | 0.0114
46 | CACCCCCC | -0.264
47 | AGTATCCG | 0.0553
48 | ATATCCGA | 0.267
49 | ACGGAGTC | 0.105
50 | ATTGTGGC | -0.0686

Row | Sequence | PBM E-score
51 | AAACGACC | 0.458
52 | AAACCTCA | 0.0265
53 | CGTCCAGC | -0.142
54 | GCATGAGC | -0.107
55 | ACACAGGA | -0.0406
56 | CCGTAGTC | 0.0316
57 | GAATGAGC | -0.126
58 | GAGCTGGC | -0.0546
59 | GAGGACGC | -0.0341
60 | CGGTGAAA | 0.247
61 | AAGAAGAT | -0.109
62 | GGGGCACC | -0.0703
63 | ATACAATG | -0.272
64 | AATGGGAA | -0.28
65 | AACATGGC | -0.157
66 | ATGAGTAA | 0.00725
67 | AGAAAGTG | -0.163
68 | ATTGCATC | 0.0605
69 | CTTTTCCC | 0.172
70 | AAAGTAAA | 0.0446
71 | GCAATAGA | 0.184
72 | AACACGTT | 0.0498
73 | CTCCTTTA | -0.0264
74 | ATGCTATA | 0.0631
75 | AAGAAATA | -0.0215

Row | Sequence | PBM E-score
76 | ATCACAAC | 0.0203
77 | TCTGCAAA | 0.0312
78 | AGAGCCTA | -0.154
79 | AGCGCCGA | -0.111
80 | GTACATAC | 0.22
81 | GAAAAAGC | 0.0257
82 | ACGAAAAG | 0.355
83 | CAACTGAC | -0.153
84 | GCTCCACA | -0.204
85 | CGTCTGAC | 0.0257
86 | CTAGTGAG | -0.18
87 | CTTAACTA | -0.0715
88 | ATCTTAAG | -0.0657
89 | ATCAGAAA | -0.0919
90 | AACGCCCC | 0.0859
91 | ATTCTCAG | -0.262
92 | AATAGGGC | -0.0827
93 | ACTTTCAT | -0.0674
94 | CAGGTGGA | -0.255
95 | TGTAACAA | -0.0291
96 | ATTTGCTG | 0.0559
97 | TCGCCAAA | 0.13
98 | CCTCATTA | -0.0435
99 | AATATCAC | 0.00067
100 | AAGTCAAC | 0.03

Row | Sequence | PBM E-score
101 | CAGCGACC | -0.185
102 | AGTTCTCG | 0.134
103 | AAAGGCAT | -0.1
104 | AGCTGAGC | -0.0883
105 | CTGCGATC | -0.0814
106 | GGAGGCGA | -0.253
107 | AATCCTTG | -0.193
108 | GAGCCCCC | -0.111
109 | CCTTGCTA | -0.149
110 | CAAGCGGA | -0.228
111 | ACGGCTCT | 0.0596
112 | ATCCCCGA | -0.23
113 | CAATAAGA | -0.0979
114 | ATACTTCA | -0.16
115 | ATCTTAAA | 0.113
116 | ACCCGTGC | -0.0333
117 | CCTGCAGG | -0.443
118 | CAAGATTG | -0.144
119 | CATAGTCA | -0.0964
120 | AGAAGAGG | -0.137
121 | ATAACTAC | -0.0415
122 | CACCCCTC | -0.113
123 | CGAGTCTC | -0.00061
124 | CGACCTAA | 0.257
125 | GTTTATAA | 0.303

Row | Sequence | PBM E-score
126 | CTTTATTC | -0.0399
127 | CCCTGGCC | -0.242
128 | GCCACCGC | -0.134
129 | ATCGGTTA | 0.333
130 | GAAGAAAA | -0.137
131 | AGAAACCA | -0.109
132 | GGGGAAAA | -0.0167
133 | ATCCTAGC | -0.102
134 | GTTCTACA | -0.0186
135 | CGGCTGCA | 0.0607
136 | CAGAACGA | 0.399
137 | CATAGGAC | -0.166
138 | AGATCGCC | 0.0712
139 | GCTACGTA | 0.301
140 | ACTTGCAT | 0.0418
141 | ATTGCAGC | -0.0672
142 | ACAGCGGG | -0.172
143 | CCCATACA | -0.22
144 | ACCTAAAC | 0.324
145 | ATGCCTGG | -0.189
146 | CACTATGG | -0.00111
147 | CTTTACGC | 0.332
148 | CAATCCAG | -0.342
149 | AGCGTCAT | 0.0529
150 | CAAAGCGG | -0.19

Row | Sequence | PBM E-score
151 | AGAGTGTG | 0.0657
152 | ACAGTTAG | -0.167
153 | ACACATAG | -0.244
154 | GACTCGTA | 0.436
155 | GAGCCTAA | -0.0807
156 | GAAGGCGC | -0.132
157 | ATAATTCA | 0.03
158 | CGTTAACG | 0.422
159 | CAAGAACC | 0.0717
160 | TGCCGTAA | 0.31
161 | TCTGACAA | -0.11
162 | CCGTTCCA | 0.283
163 | CGCAACTA | 0.00729
164 | AGCTATTA | -0.058
165 | ATCGAGAT | -0.0275
166 | GCACTCCC | -0.207
167 | CGCCTTGA | -0.133
168 | TCGGTCAA | 0.211
169 | CGTCGCTA | 0.249
170 | AAAGACCG | -0.126
171 | GAAACTGA | -0.152
172 | CCGACCTA | -0.0158
